In patent publication US20250122271A1, “ANTI-DKK1 ANTIBODY, PHARMACEUTICAL COMPOSITION THEREOF, AND USE THEREOF” (SHANGHAI JUNSHI BIOSCIENCES CO., LTD., priority 2022, published 2025):

T1: human DKK1 (Homo sapiens, UniProt O94907)
T1 construct: purchased Sino Biological 10170-H08H
T1 sequence (O94907 32-266): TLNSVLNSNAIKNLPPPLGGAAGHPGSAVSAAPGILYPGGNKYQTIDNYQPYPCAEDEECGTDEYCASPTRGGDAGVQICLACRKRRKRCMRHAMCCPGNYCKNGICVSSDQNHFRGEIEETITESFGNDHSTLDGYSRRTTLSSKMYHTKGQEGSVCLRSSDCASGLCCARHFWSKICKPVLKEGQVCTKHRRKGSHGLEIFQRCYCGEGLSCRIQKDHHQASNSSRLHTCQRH


Key:
human DKK1 = biological target: T1, human DKK1; test: Luciferase reporter gene assay in 293 TOP cells with Wnt3a and human DKK1 (recovery of Wnt signaling); format: cell-based; details: humanized antibodies
Experimental: (§1) The cellular biological activity of the DKK1 antibodies was tested using target cells 293 TOP overexpressing LRP5/6 and comprising the luciferase reporter system and recombinant Wnt3a (R&D systems, cat #5036-WN), as well as human DKK1 (Sino Biological, cat #10170-H08H) protein. The target cells 293 TOP were placed into a 96-well flat-bottomed white plate (corning, cat #3917) at 50,000 cells per well for incubation overnight. The supernatant was then discarded, and the gradiently diluted antibodies to be tested were each added for pre-incubation at 37° C. for 0.5 h. After the pre-incubation was completed, the diluted Wnt3a (R&D systems, cat #5036-WN) and human DKK1 protein, at working concentrations of 0.05 μg/mL and 0.1 μg/mL, respectively, were added into the mixture containing the cells and antibody for co-incubation at 37° C. for 6-8 h. Finally, the luciferase substrate One-Lite (Vazyme, cat #DD1203-03-AB) was added and the chemiluminescence values of the hybridoma antibodies were measured.
The cellular biological activity of the hDKK1 chimeric antibodies was tested using target cells 293 TOP overexpressing LRP5/6 and comprising the luciferase reporter system and recombinant Wnt3a (R&D systems, cat #5036-WN), as well as human DKK1 (Sino Biological, cat #10170-H08H) protein.
as §1, with “The” for “The cellular biological activity of the DKK1 antibodies was tested using target cells 293 TOP overexpressing LRP5/6 and comprising the luciferase reporter system and recombinant Wnt3a (R&D systems, cat #5036-WN), as well as human DKK1 (Sino Biological, cat #10170-H08H) protein. The”, “chimeric” for “hybridoma”, “measured (FIGS. 5A-5C).” for “measured.”
as §1, with “After the pre-incubation was completed, the diluted Wnt3a (R&D systems, cat #5036-WN) and human DKK1 protein, at working concentrations of 0.05 μg/mL and 0.1 μg/mL, respectively, were added into the mixture containing the cells and antibody for co-incubation at 37° C. for 6-8 h.” left out, “humanized” for “hybridoma”, “measured. […]” for “measured.”

PC-3 cells = test: PC-3 subcutaneous transplantation tumor model in CB17/SCID male mice; format: in vivo
Experimental: (§2) The experimental animals were CB17/SCID male mice, and PC-3 cells (10×10^6) were subcutaneously inoculated in the right back of the mice to establish a subcutaneous transplantation tumor model. […] The groups each had 8 animals, and the animals in all the groups were subjected to intraperitoneal injection. […] The efficacy was evaluated based on tumor growth inhibition (TGI) (FIG. 10).

A549 cells = test: A549 subcutaneous transplantation tumor model in CB17/SCID female mice; format: in vivo
Experimental: as §2, with “female” for “male”, “A549” for “PC-3”, “(5× 10^6)” for “(10×10^6)”, “into” for “in the right back of”, “6” for “8”, “9).” for “10).”

Molecule	activity in the screening at cellular level (human DKK1)	tumor growth inhibition (TGI) (PC-3 cells; day 21, hu3 10 mg/kg intraperitoneal twice per week for 3 weeks)	tumor growth inhibition (TGI) (PC-3 cells; day 21, hu3 20 mg/kg intraperitoneal twice per week for 3 weeks)	tumor growth inhibition (TGI) (PC-3 cells; day 21 after tumor inoculation, hu3 5 mg/kg intraperitoneal twice per week for 3 weeks)	tumor inhibition (in words) (PC-3 cells; doses of 5 mg/kg, 10 mg/kg and 20 mg/kg)	tumor inhibition (in words) (A549 cells; 5 mg/kg, p=0.013)	tumor growth inhibition (TGI) (A549 cells; day 35 after tumor inoculation, 5 mg/kg intraperitoneal once per week for 4 weeks)
hu64: humanized antibody, VH/VL SEQ ID NO: 72/76, HC/LC SEQ ID NO: 102/106 (antibody) heavy: QVQLVQSGAEVKKPGSSVKVSCKASGYTFTSYNMLWVRQAPGQGLEWMGVIFPGNGDTSYNPKFKGRVTLTADKSSSTAYMELSSLRSEDTAVYYCARDGYPSMDYWGQGTLVTVSSASTKGPSVFPLAPCSRSTSESTAALGCLVKDYFPEPVTVSWNSGALTSGVHTFPAVLQSSGLYSLSSVVTVPSSSLGTKTYTCNVDHKPSNTKVDKRV[letters of human IgG4 Fc with S228P (EU numbers) omitted] light: DTQLTQSPSFLSASVGDRVTITCITSTDIDDDMNWYQQKPGKAPKLLISEGNSLRPGVPSRFSSSGSGTEFTLTISSLQPEDFATYYCLQFNNMPLTFGQGTKLEIKRTVAAPSVFIFPPSDEQLKSGTASVVCLLNNFYPREAKVQWKVDNALQSGNSQESVTEQDSKDSTYSLSSTLTLSKADYEKHKVYACEVTHQGLSSPVTKSFNRGEC	superior activity	–	–	–	–	–	–
hu50: humanized antibody, VH/VL SEQ ID NO: 69/74, HC/LC SEQ ID NO: 99/104 (antibody) heavy: QVQLVQSGAEVKKPGASVKVSCKASGYTFTSYNMLWVRQAPGQRLEWMGVIFPGNGDTSYNPKFKGRVTLTADKSSSTAYMELSSLRSEDTAVYYCARDGYPSMDYWGQGTLVTVSSASTKGPSVFPLAPCSRSTSESTAALGCLVKDYFPEPVTVSWNSGALTSGVHTFPAVLQSSGLYSLSSVVTVPSSSLGTKTYTCNVDHKPSNTKVDKRV[letters of human IgG4 Fc with S228P (EU numbers) omitted] light: DIQMTQSPSSVSASVGDRVTITCITSTDIDDDMNWYQQKPGKAPKLLISEGNSLRPGVPSRFSGSGSGTDFTLTISSLQPEDFATYYCLQFNNMPLTFGQGTKLEIKRTVAAPSVFIFPPSDEQLKSGTASVVCLLNNFYPREAKVQWKVDNALQSGNSQESVTEQDSKDSTYSLSSTLTLSKADYEKHKVYACEVTHQGLSSPVTKSFNRGEC	superior activity	–	–	–	–	–	–

The next lines start with results.

activity in the screening at cellular level (human DKK1)	Molecule	tumor growth inhibition (TGI) (PC-3 cells; day 21, hu3 10 mg/kg intraperitoneal twice per week for 3 weeks)	tumor growth inhibition (TGI) (PC-3 cells; day 21, hu3 20 mg/kg intraperitoneal twice per week for 3 weeks)	tumor growth inhibition (TGI) (PC-3 cells; day 21 after tumor inoculation, hu3 5 mg/kg intraperitoneal twice per week for 3 weeks)	tumor inhibition (in words) (PC-3 cells; doses of 5 mg/kg, 10 mg/kg and 20 mg/kg)	tumor inhibition (in words) (A549 cells; 5 mg/kg, p=0.013)	tumor growth inhibition (TGI) (A549 cells; day 35 after tumor inoculation, 5 mg/kg intraperitoneal once per week for 4 weeks)
superior activity	hu52: humanized antibody, VH/VL SEQ ID NO: 69/76, HC/LC SEQ ID NO: 99/106 (antibody) heavy: QVQLVQSGAEVKKPGASVKVSCKASGYTFTSYNMLWVRQAPGQRLEWMGVIFPGNGDTSYNPKFKGRVTLTADKSSSTAYMELSSLRSEDTAVYYCARDGYPSMDYWGQGTLVTVSSASTKGPSVFPLAPCSRSTSESTAALGCLVKDYFPEPVTVSWNSGALTSGVHTFPAVLQSSGLYSLSSVVTVPSSSLGTKTYTCNVDHKPSNTKVDKRV[letters of human IgG4 Fc with S228P (EU numbers) omitted] light: DTQLTQSPSFLSASVGDRVTITCITSTDIDDDMNWYQQKPGKAPKLLISEGNSLRPGVPSRFSSSGSGTEFTLTISSLQPEDFATYYCLQFNNMPLTFGQGTKLEIKRTVAAPSVFIFPPSDEQLKSGTASVVCLLNNFYPREAKVQWKVDNALQSGNSQESVTEQDSKDSTYSLSSTLTLSKADYEKHKVYACEVTHQGLSSPVTKSFNRGEC	–	–	–	–	–	–
superior activity	hu3: humanized antibody, VH/VL SEQ ID NO: 49/56, HC/LC SEQ ID NO: 79/86 (antibody) heavy: EVQLLQSAAEVKRPGESLRISCKTSGYTFTEYTMHWVRQMPGKELEWMGVIDPSNGDTSYNQKFKGHVTISADKSSSTAYLQWSSLKASDAAMYYCSSTTGPWFASWGQGTLVTVSSASTKGPSVFPLAPCSRSTSESTAALGCLVKDYFPEPVTVSWNSGALTSGVHTFPAVLQSSGLYSLSSVVTVPSSSLGTKTYTCNVDHKPSNTKVDKRV[letters of human IgG4 Fc with S228P (EU numbers) omitted] light: EIVMTQSPPTLSLSPGERVTLSCRASQDISNYLNWYQQKPGQAPRLLIYYKSRLHSGIPARFSGSGSGTDFTLTISSLQPEDFAVYYCQQVHTLPPTFGQGTKLEIKRTVAAPSVFIFPPSDEQLKSGTASVVCLLNNFYPREAKVQWKVDNALQSGNSQESVTEQDSKDSTYSLSSTLTLSKADYEKHKVYACEVTHQGLSSPVTKSFNRGEC	48.8%	56.4%	30.7%	significant tumor inhibition	significant tumor inhibition	35.29%
